Patent publication US20180015075A1, “METHODS AND COMPOSITIONS FOR TREATMENT OF VENOUS MALFORMATION” (Children's Hospital Medical Center, priority 2016, published 2018)
Counter-ions that a name gives are not always drawn.

system: HUVEC (non-transfected); assay: cells; conditions: Homo sapiens, read-out: Average proliferation Inhibition rate (%) HUVEC

Molecule	inhibition at 20 µM [%]
COc1cc(Nc2c(C#N)cnc3cc(OCCCN4CCN(C)CC4)c(OC)cc23)c(Cl)cc1Cl [Bosutinib, 4-((2,4-Dichloro-5-methoxyphenyl)amino)-6-methoxy-7-(3-(4-methyl-1-piperazinyl)propoxy)3-quinolinecarbonitrile]	35.8
COc1cccc2c1C(=O)c1c(O)c3c(c(O)c1C2=O)C[C@@](O)(C(=O)CO)C[C@@H]3O[C@H]1C[C@H](N)[C@H](O)[C@H](C)O1 [Doxorubicin hydrochloride]	73.2
CCCCCOC(=O)Nc1nc(=O)n([C@@H]2O[C@H](C)[C@@H](O)[C@H]2O)cc1F [Capecitabine]	0.47
CN(C)C/C=C/C(=O)Nc1cc2c(Nc3ccc(F)c(Cl)c3)ncnc2cc1O[C@H]1CCOC1 [Afatinib]	20
O=C(c1cc(Cc2n[nH]c(=O)c3ccccc23)ccc1F)N1CCN(C(=O)C2CC2)CC1 [Olaparib]	16.8
C[C@]12CC[C@H](O)CC1=CC[C@@H]1[C@@H]2CC[C@]2(C)C(c3cccnc3)=CC[C@@H]12 [Abiraterone]	-6.5
CC[C@]1(O)C[C@@H]2CN(CCc3c([nH]c4ccccc34)[C@@](C(=O)OC)(c3cc4c(cc3OC)N(C)[C@H]3[C@@](O)(C(=O)OC)[C@H](OC(C)=O)[C@]5(CC)C=CCN6CC[C@]43[C@@H]65)C2)C1 [Vinblastine sulfate]	53.8
O=C1c2c(O)ccc(O)c2C(=O)c2c(NCCNCCO)ccc(NCCNCCO)c21 [Mitoxantrone]	80.3
CS(=O)(=O)OCCCCOS(C)(=O)=O [Busulfan]	1.68
CO[C@H]1C[C@@H]2CC[C@@H](C)[C@@](O)(O2)C(=O)C(=O)N2CCCC[C@H]2C(=O)O[C@H]([C@H](C)C[C@@H]2CC[C@@H](OC(=O)C(C)(CO)CO)[C@H](OC)C2)CC(=O)[C@H](C)/C=C(\C)[C@@H](O)[C@@H](OC)C(=O)[C@H](C)C[C@H](C)/C=C/C=C/C=C/1C [Temsirolimus, 42-[3-Hydroxy-2-(hydroxymethyl)-2-methylpropanoate]-rapamycin]	41.5
C/C(=C\c1csc(C)n1)[C@@H]1C[C@@H]2O[C@]2(C)CCC[C@H](C)[C@H](O)[C@@H](C)C(=O)C(C)(C)[C@@H](O)CC(=O)N1 [Ixabepilone]	74.3
CC[C@]1(O)C[C@H]2CN(CCc3c([nH]c4ccccc34)[C@@](C(=O)OC)(c3cc4c(cc3OC)N(C=O)[C@H]3[C@@](O)(C(=O)OC)[C@H](OC(C)=O)[C@]5(CC)C=CCN6CC[C@]43[C@@H]65)C2)C1 [Vincristine sulfate]	49.8
C[C@@H](Oc1cc(-c2cnn(C3CCNCC3)c2)cnc1N)c1c(Cl)ccc(F)c1Cl [Crizotinib]	63.8
O=C(c1ccc(OCCN2CCCCC2)cc1)c1c(-c2ccc(O)cc2)sc2cc(O)ccc12 [Raloxifene]	9.41
COc1cc2nccc(Oc3ccc(NC(=O)C4(C(=O)Nc5ccc(F)cc5)CC4)cc3)c2cc1OC [Cabozantinib]	32
C[C@@H](CN1CC(=O)NC(=O)C1)N1CC(=O)NC(=O)C1 [Dexrazoxane]	13.4
CC/C(=C(\c1ccccc1)c1ccc(OCCN(C)C)cc1)c1ccccc1 [Tamoxifen citrate]	24.3
CC[C@H](Nc1ncnc2[nH]cnc12)c1nc2cccc(F)c2c(=O)n1-c1ccccc1 [Idelalisib]	23.8
Cc1nc(Nc2ncc(C(=O)Nc3c(C)cccc3Cl)s2)cc(N2CCN(CCO)CC2)n1 [Dasatinib, N-(2-Chloro-6-methylphenyl)-2-[[6-[4-(2-hydroxyethyl)-1-piperazinyl]-2-methyl-4-pyrimidinyl]amino]-5-thiazolecarboxamide]	18.6
S=P(N1CC1)(N1CC1)N1CC1 [Thiotepa]	21.6
C1CN1c1nc(N2CC2)nc(N2CC2)n1 [Triethylenemelamine]	46.1
Cn1nnc2c(C(N)=O)ncn2c1=O [Temozolomide]	3.01
Cc1cc(Nc2ncc(Cl)c(Nc3ccccc3S(=O)(=O)C(C)C)n2)c(OC(C)C)cc1C1CCNCC1 [Ceritinib]	12.4
CC(C)(C#N)c1cc(Cn2cncn2)cc(C(C)(C)C#N)c1 [Anastrozole]	4.23
Nc1nc2[nH]cc(CCc3ccc(C(=O)N[C@@H](CCC(=O)O)C(=O)O)cc3)c2c(=O)[nH]1 [Pemetrexed disodium salt]	2.48
COc1c2occc2cc2ccc(=O)oc12 [Methoxsalen]	-1.93
O=NN(CCCl)C(=O)NCCCl [Carmustine]	11.2

Molecule	inhibition at 20 µM [%]
CC(C)Cn1cnc2c(N)nc3ccccc3c21 [Imiquimod]	-0.75
CCC1=C[C@@H]2CN(C1)Cc1c([nH]c3ccccc13)[C@@](C(=O)OC)(c1cc3c(cc1OC)N(C)[C@H]1[C@@](O)(C(=O)OC)[C@H](OC(C)=O)[C@]4(CC)C=CCN5CC[C@]31[C@@H]54)C2 [Vinorelbine tartrate]	51.6
CC(=O)O[C@@]12CO[C@@H]1C[C@H](O)[C@@]1(C)C(=O)[C@H](O)C3=C(C)[C@@H](OC(=O)[C@H](O)[C@@H](NC(=O)OC(C)(C)C)c4ccccc4)C[C@@](O)([C@@H](OC(=O)c4ccccc4)[C@H]21)C3(C)C [Docetaxel]	38.8
CCCCC(=O)OCC(=O)[C@]1(O)Cc2c(O)c3c(c(O)c2[C@@H](O[C@H]2C[C@H](NC(=O)C(F)(F)F)[C@H](O)[C@H](C)O2)C1)C(=O)c1c(OC)cccc1C3=O [Valrubicin]	-4.92
Nc1ncn([C@H]2C[C@H](O)[C@@H](CO)O2)c(=O)n1 [Decitabine]	3.11
CO[C@@]12[C@H](COC(N)=O)C3=C(C(=O)C(C)=C(N)C3=O)N1C[C@@H]1N[C@@H]12 [Mitomycin]	69.5
COc1cc2c(Nc3ccc(Br)cc3F)ncnc2cc1OCC1CCN(C)CC1 [Vandetanib]	57.8
Cc1cn(-c2cc(NC(=O)c3ccc(C)c(Nc4nccc(-c5cccnc5)n4)c3)cc(C(F)(F)F)c2)cn1 [Nilotinib, 4-Methyl-N-[3-(4-methyl-1H-imidazol-1-yl)-5-(trifluoromethyl)phenyl]-3-[[4-(3-pyridinyl)-2-pyrimidinyl]amino]-benzamide]	-7.48
CO[C@H]1C(=O)[C@]2(C)[C@@H](OC)C[C@H]3OC[C@@]3(OC(C)=O)[C@H]2[C@H](OC(=O)c2ccccc2)[C@]2(O)C[C@H](OC(=O)[C@H](O)[C@@H](NC(=O)OC(C)(C)C)c3ccccc3)C(C)=C1C2(C)C [Cabazitaxel]	40.1
C/C=C1\NC(=O)[C@H]2CSSCC/C=C/[C@H](CC(=O)N[C@H](C(C)C)C(=O)N2)OC(=O)[C@H](C(C)C)NC1=O [Romidepsin]	50.9
Clc1ccc(C(c2ccccc2Cl)C(Cl)Cl)cc1 (stereo not shown) [Mitotane]	1.39
C[C@]12CC[C@@H]3c4ccc(O)cc4C[C@@H](CCCCCCCCC[S+]([O-])CCCC(F)(F)C(F)(F)F)[C@H]3[C@@H]1CC[C@@H]2O (stereo partly shown) [Fulvestrant]	-4.95
CCN(CC)CCNC(=O)c1c(C)[nH]c(/C=C2\C(=O)Nc3ccc(F)cc32)c1C [Sunitinib]	34.9
Oc1ncnc2[nH]ncc12 [Allopurinol]	1.79
O=P(O)(O)C(O)(Cn1ccnc1)P(=O)(O)O [Zoledronic acid]	-8.23
O=c1[nH]cc(F)c(=O)[nH]1 [Fluorouracil]	20.5
NC(=O)NO [Hydroxyurea]	-2.21
O=C1CCC(N2C(=O)c3ccccc3C2=O)C(=O)N1 (stereo not shown) [Thalidomide]	-1.6
CN(C)/N=N/c1[nH]cnc1C(N)=O [Dacarbazine]	1.88
CC(=O)[C@]1(O)Cc2c(O)c3c(c(O)c2[C@@H](O[C@H]2C[C@H](N)[C@H](O)[C@H](C)O2)C1)C(=O)c1ccccc1C3=O [Idarubicin hydrochloride]	1.79
CC(=O)Nc1cccc(-n2c(=O)n(C3CC3)c(=O)c3c(Nc4ccc(I)cc4F)n(C)c(=O)c(C)c32)c1 [Trametinib]	34.7
CS(=O)(=O)c1ccc(C(=O)Nc2ccc(Cl)c(-c3ccccn3)c2)c(Cl)c1 [Vismodegib]	-1.48
CN(Cc1cnc2nc(N)nc(N)c2n1)c1ccc(C(=O)N[C@@H](CCC(=O)O)C(=O)O)cc1 [Methotrexate]	-3.4
O=NN(CCCl)C(=O)NC1CCCCC1 [Lomustine]	12.6
NCCCNCCSP(=O)(O)O [Amifostine]	-8.91
Nc1nc2nc[nH]c2c(=S)[nH]1 [Thioguanine]	13.8
CNC(=O)c1cc(Oc2ccc(NC(=O)Nc3ccc(Cl)c(C(F)(F)F)c3)c(F)c2)ccn1 [Regorafenib]	56.7

same assay, conditions: Homo sapiens, read-out: IC50 HUVEC

Molecule	IC50 [µM]
COc1cc(Nc2c(C#N)cnc3cc(OCCCN4CCN(C)CC4)c(OC)cc23)c(Cl)cc1Cl [Bosutinib, 4-((2,4-Dichloro-5-methoxyphenyl)amino)-6-methoxy-7-(3-(4-methyl-1-piperazinyl)propoxy)3-quinolinecarbonitrile]	5.16 ± 1.85
CO[C@H]1C[C@@H]2CC[C@@H](C)[C@@](O)(O2)C(=O)C(=O)N2CCCC[C@H]2C(=O)O[C@H]([C@H](C)C[C@@H]2CC[C@@H](OC(=O)C(C)(CO)CO)[C@H](OC)C2)CC(=O)[C@H](C)/C=C(\C)[C@@H](O)[C@@H](OC)C(=O)[C@H](C)C[C@H](C)/C=C/C=C/C=C/1C [Temsirolimus, 42-[3-Hydroxy-2-(hydroxymethyl)-2-methylpropanoate]-rapamycin]	< 0.03
Cc1cc(Nc2ncc(Cl)c(Nc3ccccc3S(=O)(=O)C(C)C)n2)c(OC(C)C)cc1C1CCNCC1 [Ceritinib]	8.13 ± 2.65
COc1cc2c(Nc3ccc(Br)cc3F)ncnc2cc1OCC1CCN(C)CC1 [Vandetanib]	6.2 ± 0.95
Cc1cn(-c2cc(NC(=O)c3ccc(C)c(Nc4nccc(-c5cccnc5)n4)c3)cc(C(F)(F)F)c2)cn1 [Nilotinib, 4-Methyl-N-[3-(4-methyl-1H-imidazol-1-yl)-5-(trifluoromethyl)phenyl]-3-[[4-(3-pyridinyl)-2-pyrimidinyl]amino]-benzamide]	6.39 ± 1.18

system: HUVEC (non-transfected); assay: not given; conditions: 20 uM

Molecule	Average proliferation Inhibition rate (%) HUVEC [%]
Cl.Nc1ccn([C@@H]2O[C@H](CO)[C@@H](O)[C@@H]2O)c(=O)n1 [Cytarabine hxdrochloride]	42.88
N.N.O=C([O-])C1(C(=O)[O-])CCC1.[Pt+2] [Carboplatin]	3.77
CNNCc1ccc(C(=O)NC(C)C)cc1.Cl [Procarbazine hxdrochloride]	0.84
Dabrafenib mesylate [Dabrafenib-mesylate]	22.13
Arsenic trioxide	1.49

same assay, conditions: 20 µM

Molecule	Average proliferation Inhibition rate (%) HUVEC [%]
O=C1[O][Pt]2([NH][C@@H]3CCCC[C@H]3[NH]2)[O]C1=O [Oxaliplatin]	25.39
Bleomycin sulfate	50.88
Cl.N[C@@H](Cc1ccc(N(CCCl)CCCl)cc1)C(=O)O [Melphalan hxdrochloride]	11.09

same assay, conditions: ABL kinase inhibitor 10 μM to 30 nM combined with rapamycin 10 nM

Molecule	Combination Index (CI) with rapamycin, HUVEC
COc1cc(Nc2c(C#N)cnc3cc(OCCCN4CCN(C)CC4)c(OC)cc23)c(Cl)cc1Cl [Bosutinib, 4-((2,4-Dichloro-5-methoxyphenyl)amino)-6-methoxy-7-(3-(4-methyl-1-piperazinyl)propoxy)3-quinolinecarbonitrile]	1.47 ± 0.41
Cc1cn(-c2cc(NC(=O)c3ccc(C)c(Nc4nccc(-c5cccnc5)n4)c3)cc(C(F)(F)F)c2)cn1 [Nilotinib, 4-Methyl-N-[3-(4-methyl-1H-imidazol-1-yl)-5-(trifluoromethyl)phenyl]-3-[[4-(3-pyridinyl)-2-pyrimidinyl]amino]-benzamide]	0.71 ± 0.27

same assay, conditions: read-out: IC50 HUVEC; 6 dilution doses from 10 μM to 30 nM

Molecule	IC50 [µM]
Dabrafenib mesylate [Dabrafenib-mesylate]	> 10
